# Some of the results follow. Single values are uncertain, as repeats are few or missing.
# System: UACC62
# Experiment: cell count relative to DMSO control; melanoma cells; higher = more viable cells
# Settings: library dose: low library concentration; 72 h
# 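Note: cell number obtained by counting DAPI-stained nuclei in high-throughput microscope images with image analysis software, screen run in 1,536-well plates.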
row,SMILES,cell count [%]
1,"Nc1ccn([C@@H]2O[C@H](CO)[C@@H](O)C2(F)F)c(=O)n1 [gemcitabine] + O=C(CCCCCCC(=O)Nc1ccccc1)NO [vorinostat] (first compound 0.0004 µM, partner dose 0.08 µM)",82.4
2,"Nc1nc(F)nc2c1ncn2[C@@H]1O[C@H](CO)[C@@H](O)[C@@H]1O [fludarabine] + Oc1nc(-c2ccc(C(F)(F)F)cc2)nc2c1CSCC2 [XAV939] (first compound 0.2 µM, partner dose 2 µM)",91.2
3,"Nc1ccn([C@@H]2O[C@H](CO)[C@@H](O)C2(F)F)c(=O)n1 [gemcitabine] + O=C(Nc1ccccc1)c1cc([N+](=O)[O-])ccc1Cl [GW9662] (first compound 0.0004 µM, partner dose 2 µM)",96.5
4,"CO[C@H]1C[C@@H]2CC[C@@H](C)[C@@](O)(O2)C(=O)C(=O)N2CCCC[C@H]2C(=O)O[C@H]([C@H](C)C[C@@H]2CC[C@@H](OCCO)[C@H](OC)C2)CC(=O)[C@H](C)/C=C(\C)[C@@H](O)[C@@H](OC)C(=O)[C@H](C)C[C@H](C)/C=C/C=C/C=C/1C [everolimus] + COc1ccc(Cl)c(Nc2nc3ccccc3nc2NS(=O)(=O)c2cccc(NC(=O)C(C)(C)N)c2)c1 [XL147] (first compound 0.02 µM, partner dose 0.8 µM)",61.4
5,"Nc1ccn([C@@H]2O[C@H](CO)[C@@H](O)C2(F)F)c(=O)n1 [gemcitabine] + C#Cc1cccc(Nc2ncnc3cc(OCCOC)c(OCCOC)cc23)c1 [erlotinib] (first compound 0.0004 µM, partner dose 0.8 µM)",88.2
